Hit rate of the full screen: of about 43,000 compounds, about 200 (0.47%) were called active. Another 12% or so got no clear call; they are omitted. Calls come from the whole dose curve; as a rule, active = well fitted cell-killing curve with a large enough effect; inconclusive = small, poorly fitted or top-dose-only effect, or effect the other way; inactive = flat fitted curve, though single readings scatter. This is one part of the list.
Test: Cell viability qHTS assay in S16 Pmp22-F2sN cells; note: nearly all actives have a fitted effect of over 65% in size
Settings: S16 Pmp22-F2sN Schwann cells (luciferase reporters placed in the Pmp22 gene) viability, CellTiter-Glo, 24 h; series mostly up to 57.5 µM; activity change, negative = cytotoxicity: at the top concentration
Outline: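 Luminescence from CellTiter-Glo, read by CCD camera after a 15 min room-temperature incubation, served as the viability signal. Reporter Schwann cells (S16 Pmp22-F2sN) had been treated with pin-transferred compounds for 24 h at 37C.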
% is set by controls: 0 for no effect and ±100 for the full control effect.

SMILES	activity change, negative = cytotoxicity
CC(=O)CSc1nnc2cc(C)c3cc(C)cc(C)c3n12	inactive: 8.55%
Cc1nn(C(C)C(=O)N2CCN(c3ccc(Cl)cc3)CC2)c(=O)c2cc3occc3n12 (stereo not drawn)	inactive: -16.7%
Cc1ccc(S(=O)(=O)c2cn(Cc3cccc(C)c3)c3cc4c(cc3c2=O)OCO4)cc1	inactive: -12.7%
Cc1ccc(Cl)cc1NC(=O)c1oc2ccc(S(=O)(=O)N(C)C3CCCCC3)cc2c1C	inactive: 0.767%
CCN(Cc1ccccc1)S(=O)(=O)c1ccc(-c2coc(C)n2)cc1	inactive: 0.357%
Cc1cc(-n2c(C)nc3ccccc3c2=O)ccc1NC(=O)C(F)(F)F	inactive: 18.4%
O=C(Cn1ncc2c3ccccc3n(Cc3ccc(F)cc3)c2c1=O)NCc1cccs1	inactive: -1.63%
CC(CNC(=O)c1ccc2nc(Cc3ccccc3)oc2c1)c1ccccc1 (stereo not drawn)	inactive: -3.06%
COc1ccc(NC(=O)CCCn2nc(C)c3sc4ccccc4c3c2=O)cc1	inactive: 8.33%
COc1ccc(S(=O)(=O)NCCSc2nnnn2-c2ccccc2)cc1	inactive: -13.8%
Cc1cc(C(=O)Nc2ccc(-n3c(C)nc4ccccc4c3=O)cc2)ccc1[N+](=O)[O-]	inactive: 15.4%
CC1CCCN(S(=O)(=O)c2ccc3c(c2)CCN3C(=O)CCC(=O)O)C1 (stereo not drawn)	inactive: 3.96%
CCC(C)Nc1ncnc2c1cnn2-c1ccc(F)cc1 (stereo not drawn)	inactive: -4.48%
O=C(CCC1N=C2c3ccccc3N=C(SCc3ccc(Cl)cc3)N2C1=O)N1CCN(c2ccccc2)CC1 (stereo not drawn)	inactive: 1.14%
COc1ccc(N2CCN(CCCNC(=O)Nc3ccccc3)CC2)cc1	inactive: -7.16%
COC(=O)c1sccc1S(=O)(=O)N(CC(=O)NCc1ccc(C)cc1)c1ccc(C)cc1	inactive: 16%
COc1ccc(-n2c(SCC(=O)NCc3ccc(C)cc3)nc3n[nH]c(C)c3c2=N)cc1	inactive: 13.6%
Fc1ccc(-c2nc(Nc3cccc(C(F)(F)F)c3)nc3c2COc2ccccc2-3)cc1	inactive: 3.25%
Cc1ccc(CSc2nnc3[nH]c(=O)cc(-c4ccccc4)n23)cc1	inactive: -0.24%
O=C(CSc1nnc(-c2ccc(F)cc2)o1)N1CCCc2ccccc21	inactive: -0.901%
CCn1cc(C(=O)NCc2ccc(Cl)cc2)c(=O)c2cc(S(=O)(=O)N(C)C3CCCCC3)ccc21	inactive: 4.82%
Cc1ccc(N(CC(=O)Nc2ccc(Cl)cc2)S(=O)(=O)c2cccc3nonc23)cc1	inactive: -26.1%
CCOc1cc(CNC(=O)CN2CCSc3ccccc32)cc(OCC)c1OCC	inactive: 7.8%
COc1cccc(NC(=O)Cn2c(=O)n(Cc3ccccc3)c(=O)c3ccccc32)c1	inactive: 3.65%

SMILES	activity change, negative = cytotoxicity
CN1C(C(=O)Nc2ccc(OC(F)(F)F)cc2)=CC(c2cccs2)=NS1(=O)=O	inactive: -15%
CCSc1nc2n(n1)C(c1ccc(C(=O)O)cc1)C(C(=O)Nc1ccccc1C)=C(C)N2 (stereo not drawn)	inactive: -3.14%
COc1ccc(NC(=O)c2oc3ccccc3c2NC(=O)COc2ccc(C(C)C)cc2)c(OC)c1	inactive: 17.3%
O=C(Nc1ccccc1Cl)c1sc2cccc(Cl)c2c1Cl	inactive: -0.0428%
CCCS(=O)(=O)c1nc(S(=O)(=O)c2ccc(C)cc2)c(NC)s1	inactive: -7.19%
COc1ccc(-n2c(=O)[nH]c3cc(C(=O)NCCc4ccccc4)ccc3c2=O)cc1OC	inactive: -19.5%
Cc1ccc(-n2ncc(C(=O)N3CCCCC3)c2C2CCN(C(=O)OC(C)(C)C)CC2)c(C)c1	inactive: 4.48%
CCOC(=O)c1c(NC(=O)c2ccc(OC)cc2)sc2c1CCCCC2	inactive: 2.28%
O=C(COc1ccccc1)Nc1ccc2nc(SCC(=O)N3CCOCC3)sc2c1	inactive: -1.3%
COc1ccc(-c2nc3c(c(SCC(=O)N4CCCCC4)n2)Cc2cc(Cl)ccc2O3)cc1	inactive: 25.9%
CN(C)c1ccc(CNC(=O)Cn2c(=O)oc3cc(S(=O)(=O)N4CCCCCC4)ccc32)cc1	inactive: -4.63%
CC(=O)c1ccc(NC(=O)Cn2nc(N3CCN(c4ccccc4)CC3)ccc2=O)cc1	inactive: 9.19%
CC(=O)c1sc(N2C(=O)c3oc4ccccc4c(=O)c3C2c2ccc(C)cc2)nc1C (stereo not drawn)	inactive: -0.896%
CCCn1c2ccccc2c2nnc(SCC(=O)Nc3cccc(C(C)=O)c3)nc21	inactive: -19.5%
CCN(Cc1ccccc1)C(=O)c1cnn(-c2ccc(F)cc2)c1-n1cccc1	inactive: 14.3%
CCCSc1nc2c([nH]c3ccccc32)c(=O)n1C	inactive: 4.68%
O=C(NCc1cccnc1)c1nn(-c2ccc(F)cc2)nc1CO	inactive: -1.04%
COc1ccccc1CNC(=O)CSC1=Nc2ccccc2N=C(c2ccc(F)cc2)C1	inactive: 21.5%
CCc1ccc(NS(=O)(=O)c2ccc3[nH]cc(C(=O)NCCCOC(C)C)c(=O)c3c2)cc1	inactive: 0.787%
Cc1ccc(Cl)cc1N1CCN(S(=O)(=O)c2ccc3c(c2)CCN3C(=O)C2CCC2)CC1	inactive: 6.24%
Cc1cccc(CSc2ncc(Cl)c(C(=O)Nc3nc4ccc(F)cc4s3)n2)c1	inactive: -12.4%
COc1cc(NC(=O)Cn2cc(C(=O)c3ccc(F)cc3)c(=O)c3ccc(C)nc32)cc(OC)c1	inactive: -20.6%
CCOc1ccc(NC(=O)c2ncoc2-c2ccco2)cc1	inactive: -9.4%
O=C(Cn1c(=O)nc(-c2ccccc2)c2cc(Cl)ccc21)Nc1ccc(F)c(Cl)c1	inactive: 10.9%

From PubChem BioAssay AID1508642 (National Center for Advancing Translational Sciences (NCATS), 2021)
